For 14 molecules, binding signal results are on record in PMC12136788.

The chains are these.
T1: UNK ZnF1-3 (human, UniProt Q9C0B0 31-174)
T1 sequence: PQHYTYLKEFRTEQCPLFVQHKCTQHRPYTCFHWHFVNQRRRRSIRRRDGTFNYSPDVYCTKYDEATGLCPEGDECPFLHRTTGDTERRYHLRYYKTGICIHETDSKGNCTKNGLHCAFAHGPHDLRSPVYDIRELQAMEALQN

B1: chr8:104081237:104081238:+_ENSG00000155097_ENST00000518738|hu_hu|FALSE|FALSE (ssRNA)
RNA: GGGAGUUCUACAGUCCGACGAUCAAUGGAAUUAAUGCAUACCAUGAUAUCAAUAAGGAAGAGACCUUCUCUUUAAAUAAACUAUUUUGUUUAUAAAUAAACUCUGAUUUUUUUAGUACACAUUUACAGACCUGAUCAAUAAAACAACAGAGGAUUGAGCAUCA
B2: chr2:26507767:26507768:+_ENSG00000138029_ENST00000317799|hu_hu|FALSE|FALSE (ssRNA)
RNA: GGGAGUUCUACAGUCCGACGAUCCUUGGUUUUUCUACCCAUGUAGUUUUCUGCAAACCAAUCAGAAUCCAUGGCUUUAAAAUUUGCCAAAAUCUGACCCGAGAAAGCUUCAUGAAAUUCAAAAGCAUCAAUAUCAUUCAUGGUCAACAGAGGAUUGAGCAUCA
B3: chr14:31337589:31337590:+_ENSMUSG00000021962_ENSMUST00000022535|mus_hu|motif|central (ssRNA)
RNA: GGGAGUUCUACAGUCCGACGAUCAAAUGACCUGUAUCAUAGAAACGAAGACACUUUCAUUCAAAGAAUAUCUUAAAAUUACGGUUGCUGAAAUAAAUCAAAAUCUACAUUAAAAUAUUACUAAACACCAUUACAUGCCAUAAACAACAGAGGAUUGAGCAUCA
B4: 88154841_88154961_4418_3pUTR_ENSMUSG00000069769_ENSMUST00000107909|mouse|control|control (ssRNA)
RNA: GGGAGUUCUACAGUCCGACGAUCUGCCAGGGAAGAGCCAUUAGCCAAGAGGGUUUCUCCCCCAGGGAAGGUCAGAGGAGGGGGUCCCACAUUCGCUAUUGAGCUUAACUGAAACAAAGACAAAGAUGGACACCAGUGCUGAAACAACAGAGGAUUGAGCAUCA
B5: chr18:65375181:65375182:+_ENSMUSG00000024589_ENSMUST00000163516|mus_mus|FALSE|FALSE (ssRNA)
RNA: GGGAGUUCUACAGUCCGACGAUCAAGUCCCUCCACAGUGAAGUAAGAGUCCUGGAACCCACUCUGCAGCCUCAAGGUAAAUGAUCCACAAUUAUUUGCAGGGCGACAGGAUGGUGUGAUCUCCACAGCUCAGAAGGAAACAGCCAACAGAGGAUUGAGCAUCA
B6: chr6:136600977:136600978:-_ENSG00000029363_ENST00000527536|hu_mus|FALSE|FALSE (ssRNA)
RNA: GGGAGUUCUACAGUCCGACGAUCCGAGACCUAGAACUGUAUCUCUUCUUUCUAGAAUGUGAUCUUGAUCUUGAUCUAGAACUAGACUGUGAUCUAGACUUGGAUCUUGAAGAAUGUGAUCUAGAAUUGGAGCGGCCCAUUUCUCAACAGAGGAUUGAGCAUCA
B7: chr10:17279496:17279497:+_ENSG00000026025_ENST00000224237|hu_hu|FALSE|FALSE (ssRNA)
RNA: GGGAGUUCUACAGUCCGACGAUCUUAAUGGUAUUCAAAAUACCUUUUAAAAAGUAUUCUAGCACAAGAUUUUUCUGUAAACUAGAUUAUGUUGUAAACUUUUUUCUAAAUCUUGUAGGAGUGUCGGUUGUUAAGAACUAGAGCCAACAGAGGAUUGAGCAUCA
B8: 31918693_31919420_4223_CDS_ENSMUSG00000042323_ENSMUST00000112095|mouse|control|control (ssRNA)
RNA: GGGAGUUCUACAGUCCGACGAUCAUCAUCUCCUCCUUCUAACUCUGCAAAUUUAGCUUCUAGCAAUUGUAUCUUCUUUUCUAACAAAGGUGAGGGUUCCUUCUGAGGAAUGAUUGGUUUUCUGAAGUAGUAGAUUUCAUCAUCCAACAGAGGAUUGAGCAUCA
B9: chr10:34018870:34018871:+_ENSMUSG00000039485_ENSMUST00000047935|mus_mus|FALSE|FALSE (ssRNA)
RNA: GGGAGUUCUACAGUCCGACGAUCACGGUUCUUCACAGUACAUAGAUAUCGGGAACACAGCAGAAAGUAUGAAGCCUGGCUAGUUCUUGGUAAGAAUGUGUCAAGCUUUCUUGUGGCAGAGAACCACUUAAAAAAAAAAAUGAACAACAGAGGAUUGAGCAUCA
B10: chr4:57314706:57314707:+_ENSG00000128050_ENST00000264221|hu_mus|hu_hu_hu_mus_True|48_58 (ssRNA)
RNA: GGGAGUUCUACAGUCCGACGAUCCAGAAUUUCAAAAAUAGCUUGUGUGGCAUGACUCAUGAUGUCCACUUCAGUCUGGCCUAUAAGAAGUCCAGCAAAACAGAAUUUUGCAGCAAUGAGUUGCUCCUCAGACCACUGUGGAUCCAACAGAGGAUUGAGCAUCA
B11: chr8:74858975:74858976:-_ENSG00000154582_ENST00000284811|hu_mus|hu_hu_hu_mus_True|1_8 (ssRNA)
RNA: GGGAGUUCUACAGUCCGACGAUCGACCUUGUAGGUAAAAUACAUGCACACUUUUGAUAGCACAUGUGAGGGGAUCUCUCUAAAAUUGACCUCGUUGGUUUCAUUCUCAGCAAACUGACCUGGACCACUCAACAUGGCUUUUAUCAACAGAGGAUUGAGCAUCA
B12: 94151974_94152094_2413_3pUTR_ENSMUSG00000020863_ENSMUST00000166312|mouse|control|control (ssRNA)
RNA: GGGAGUUCUACAGUCCGACGAUCAUCUUUGUUAUAUGUACUACACACUACAUACACAGCAAUAUAUACAUUUAUAACCAAACAAGACUGGGUUAAAAGAAAUUACUAGUAUAGGAUUUAAAGGAAAGGAACAGCUGGAAGUUUCAACAGAGGAUUGAGCAUCA
B13: chr10:19624517:19624518:-_ENSMUSG00000020003_ENSMUST00000020182|mus_mus|FALSE|FALSE (ssRNA)
RNA: GGGAGUUCUACAGUCCGACGAUCCUCAUUGUUUUCACUCCAGGUAACGUCAAACAAGCCGUCAUUCCAGUCAAAGCUUCUAAAAAUCUGAAGUCCAGAUUCAUUUUGAUCCAAUACUAAUAGAGUUCCACAGCCCGCGAUGCCCAACAGAGGAUUGAGCAUCA
B14: chr15:64983782:64983783:-_ENSG00000180304_ENST00000326005|perfect_dup|FALSE|FALSE (ssRNA)
RNA: GGGAGUUCUACAGUCCGACGAUCCCUGGAACAAUGUGCCUGCAGCACUGGAGCUGGGGACACUUACUCAACGGCAAAAUACUACUGUCCUGGGUGUUUAUCAUCCUCGGUGGCUCUGCUCAGGGUGGGAGGAGGCGGCGCGGGCAACAGAGGAUUGAGCAUCA

The other results are listed elsewhere or left out.

The target in the assay is T1, UNK ZnF1-3. Kind of assay: nsRBNS (natural sequence RNA bind-n-seq); RBNS binding buffer (assumed for nsRBNS): 25 mM Tris pH 7.5, 150 mM KCl, 3 mM MgCl2, 0.01% Triton X-100, 500 ug/ml BSA, 20 U/ml SUPERase-In, 4 C; UNK is unkempt and MSI1 is Musashi-1; names of the RNAs are library labels; protein concentration not given here; high values mean tight binding.
B1 returned a binding signal of 1.32 enrichment R.

Molecule B2 displayed a binding signal of 0.98 enrichment R. The molecule B3 showed a binding signal of 1.39 enrichment R.

The molecule B4 returned a binding signal of 1.79 enrichment R. On to B5, for which the binding signal came out at 1.27 enrichment R. As to B6, the binding signal amounted to 0.376 enrichment R. B7 showed a binding signal of 0.816 enrichment R. Molecule B8 registered a binding signal of 0.725 enrichment R. B9 yielded a binding signal of 1.69 enrichment R. As for B10, the figure is 0.975 enrichment R. As for B11, the figure is 0.722 enrichment R; as for B12, 1.31 enrichment R; as for B13, 0.646 enrichment R. B14 came in with a binding signal of 1.19 enrichment R.
